Test results taken from PubChem BioAssay AID1347165 (National Center for Advancing Translational Sciences (NCATS), 2019).
The whole screen tested about 220,000 compounds, of which about 5,700 (2.6%) were called active. The inconclusive results got no clear call from the source; some entries with a clear call stand among them for comparison. The call rests on the fitted dose curve; in most records, active means well fitted inhibition curve with a large enough effect; inconclusive means small, poorly fitted or top-dose-only effect; inactive means no such curve, though single readings can be large or run the other way. Where the call is inconclusive, the potency comes from a doubtful curve fit.
Further: nearly all actives have a fitted effect of over 70% in size.
Potency means the concentration at half of the fitted maximal effect; tags describe the fitted curve by direction and shape.
Wherever activity change, negative = inhibition is given: 0% is about no effect.

These compounds were tested against Lysine-specific demethylase 5B (Homo sapiens) (UniProt Q9UGL1) (assay: Primary screen for KDM5B Histone Demethylases FDH-coupled qHTS). Conditions: FDH-coupled NADH fluorescence (FDH is formaldehyde dehydrogenase); activity change, negative = inhibition: at 57.7 µM (top of the series) unless noted.
UniProt Q9UGL1, sequence (Q9UGL1 whole entry, looked up, the tested form may be a part): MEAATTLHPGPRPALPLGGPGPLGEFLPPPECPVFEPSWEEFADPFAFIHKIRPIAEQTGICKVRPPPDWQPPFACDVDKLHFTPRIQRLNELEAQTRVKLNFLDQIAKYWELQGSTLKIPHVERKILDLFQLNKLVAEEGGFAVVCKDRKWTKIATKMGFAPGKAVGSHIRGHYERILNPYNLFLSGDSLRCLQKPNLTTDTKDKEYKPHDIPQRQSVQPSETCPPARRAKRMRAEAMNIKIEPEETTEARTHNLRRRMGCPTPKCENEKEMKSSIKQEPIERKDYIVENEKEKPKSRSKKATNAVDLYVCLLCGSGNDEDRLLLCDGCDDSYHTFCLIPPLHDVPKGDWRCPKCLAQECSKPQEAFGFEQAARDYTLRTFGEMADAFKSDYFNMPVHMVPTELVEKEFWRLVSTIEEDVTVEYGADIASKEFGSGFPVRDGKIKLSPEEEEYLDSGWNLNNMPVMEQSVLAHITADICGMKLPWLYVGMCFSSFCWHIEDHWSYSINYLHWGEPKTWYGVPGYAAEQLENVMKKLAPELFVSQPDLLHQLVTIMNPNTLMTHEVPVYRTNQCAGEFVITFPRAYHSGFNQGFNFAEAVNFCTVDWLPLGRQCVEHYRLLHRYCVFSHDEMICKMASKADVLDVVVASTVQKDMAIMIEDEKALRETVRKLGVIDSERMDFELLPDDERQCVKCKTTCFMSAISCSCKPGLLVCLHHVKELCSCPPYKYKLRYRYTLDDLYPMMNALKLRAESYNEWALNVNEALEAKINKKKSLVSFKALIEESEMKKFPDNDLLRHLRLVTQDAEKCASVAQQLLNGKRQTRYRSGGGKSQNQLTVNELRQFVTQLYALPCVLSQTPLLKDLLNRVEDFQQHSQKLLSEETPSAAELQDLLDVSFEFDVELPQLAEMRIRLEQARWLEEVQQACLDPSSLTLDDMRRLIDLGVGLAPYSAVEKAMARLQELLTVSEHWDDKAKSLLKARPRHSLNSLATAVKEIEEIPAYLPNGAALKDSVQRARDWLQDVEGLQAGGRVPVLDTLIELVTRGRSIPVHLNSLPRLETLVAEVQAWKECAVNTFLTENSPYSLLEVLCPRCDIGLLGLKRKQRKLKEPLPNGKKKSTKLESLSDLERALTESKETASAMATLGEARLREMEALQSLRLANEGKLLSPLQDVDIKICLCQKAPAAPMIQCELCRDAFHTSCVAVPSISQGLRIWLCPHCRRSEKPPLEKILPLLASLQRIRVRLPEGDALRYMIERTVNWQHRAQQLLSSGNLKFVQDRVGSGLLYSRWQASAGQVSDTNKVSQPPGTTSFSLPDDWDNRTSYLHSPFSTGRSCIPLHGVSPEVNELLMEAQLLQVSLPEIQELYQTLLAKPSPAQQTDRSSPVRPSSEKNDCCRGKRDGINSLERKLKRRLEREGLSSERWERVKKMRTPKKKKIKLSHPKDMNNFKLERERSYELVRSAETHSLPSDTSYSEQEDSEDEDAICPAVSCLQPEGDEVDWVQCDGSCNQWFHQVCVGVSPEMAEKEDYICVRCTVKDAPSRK
In short: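 Inhibition is measured as reduced NADH fluorescence generation from FDH coupling to formaldehyde release. Truncated KDM5BΔAP at 200 nM final acts on H3K4me3 peptide (12.5 µM in substrate mix) in pH 7.5 HEPES buffer with Tween-20, 30 min, room temperature.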
CCOC(=O)c1sc(S(C)(=O)=O)c2c1CCc1conc1-2 was tested, and the Potency was inconclusive: 39.8 µM [inhibitor, partial curve, poor fit].
In the case of O=C(NCCN1CCCCC1)c1cccnc1N1CC2CC(C1)[C@H]1CCCC(=O)N1C2 (some centres not stated), the Potency is reported as active: 28.2 µM.
For COc1cccc(-c2nc3cnccn3c2NCCC(=O)N2CCc3ccccc32)c1, the Potency was active: 22.4 µM.
For Oc1ccc(-c2ccc(-c3nc(CCc4ccccc4)no3)cn2)cc1, the Potency was active: 25.1 µM.
In the case of CCOc1ccc(S(=O)(=O)N2CCCC2c2ccc(Cl)cc2)cc1 (configuration not stated), the “activity change, negative = inhibition” value is reported as inactive: -6.16%.
In the case of O=C(CSc1nnc(Cc2cccs2)n1C1CC1)c1c[nH]c(C(=O)N2CCCC2)c1, the “activity change, negative = inhibition” value is reported as inactive: -12.5%.
Cc1cccn2c(=O)c(/C=N/O)c(NCc3ccccc3)nc12 was tested, and the Potency was inconclusive: 20 µM [inhibitor, partial curve, poor fit].
With O=C(c1ccccc1F)N1CCC(Oc2cccnc2)C1 (configuration not stated) the Potency was inconclusive: 6.31 µM [inhibitor, single point].
With COc1ccc(-c2cc(C(F)(F)F)nc(SCC(=O)NCCc3ccccc3)n2)cc1OC the Potency was inconclusive: 31.6 µM [inhibitor, partial curve, poor fit].
With COCCN(C(=O)c1cc(-c2ccco2)nc2ccccc12)c1c(N)n(CC(C)C)c(=O)[nH]c1=O the Potency was inconclusive: 17.8 µM [inhibitor, partial curve, poor fit].
In the case of Cc1ccc(C)c([S+](=O)([O-])c2nnn3c2nc(NC2CC2)c2ccccc23)c1, the Potency is reported as active: 79.4 µM.
With COc1cc(F)cc(-c2ncc3c(n2)OCCN(c2cccc(C(F)(F)F)c2)C3=O)c1 the “activity change, negative = inhibition” value was inactive: -23.8% [at 86.2 µM].
With Cc1nc(-c2cccnc2)sc1CCNS(=O)(=O)c1ccc(F)cc1 the Potency was inconclusive: 25.1 µM [inhibitor, partial curve, poor fit].
With Cc1oc(-c2cccs2)nc1CSc1nnc(C2CC2)n1C1CC1 the Potency was inconclusive: 22.4 µM [inhibitor, partial curve, poor fit].
With CC1CCCN(S(=O)(=O)c2ccc(-c3nc(C#N)c(NCc4ccco4)o3)cc2)C1 (configuration not stated) the Potency was inconclusive: 10 µM [inhibitor, partial curve, poor fit].
COc1ccc2c(CNCCc3ccco3)c(C(=O)O)n(Cc3ccccc3)c2c1 was tested, and the Potency was inconclusive: 31.6 µM [inhibitor, single point].
For CCOc1ccccc1C(=O)NC1CCCN(c2cc(-c3ccc(Cl)cc3)[nH]n2)C1 (configuration not stated), the Potency was inconclusive: 25.1 µM [inhibitor, single point].
With COc1ccc(CN2CCC3(CC2)C(=O)NCN3Cc2ccc(Cl)cc2)cc1 the “activity change, negative = inhibition” value was inactive: 24.6%.
Cc1ccc(NC(=O)CN2C(=O)NC(c3ccc(Cl)cc3)C3=C2COC3=O)cc1Cl (configuration not stated) was tested, and the Potency was inconclusive: 12.6 µM [inhibitor, partial curve, poor fit].
With O=C(/C=C/c1ccc(-c2ccccc2Cl)o1)c1ccc(F)cc1 the Potency was inconclusive: 20 µM [inhibitor, partial curve, poor fit].
With CCCN(CC1CCOC1)C(=O)Nc1cccc(Cl)c1C (configuration not stated) the “activity change, negative = inhibition” value was inactive: -5.27%.
For OC1CCCN(c2ccc(-c3nc(-c4cccc(C(F)(F)F)c4)no3)cn2)C1 (configuration not stated), the Potency was active: 35.5 µM.
With O=C(NCCc1ccccn1)C1CCCN(c2nc(-c3ccccc3)nc3c2CCC3)C1 (configuration not stated) the Potency was inconclusive: 28.2 µM [inhibitor, partial curve, poor fit].
With COc1ccc(-c2nc(C3CC3)nc3c2CCN(Cc2ccccc2)CC3)cc1 the Potency was inconclusive: 56.2 µM [inhibitor, partial curve].
CCc1ccccc1Nc1cc(C(=O)NC(C)c2ccccc2)c2ccccc2n1 (configuration not stated) was tested, and the Potency was inconclusive: 39.8 µM [inhibitor, partial curve, poor fit].
In the case of Cc1ccc(C)c(S(=O)(=O)c2nnn3c2nc(NCc2ccc(F)cc2)c2sccc23)c1, the “activity change, negative = inhibition” value is reported as inactive: -13.5%.
For Cc1cc(C(N)=O)c(-c2ccc(N)nc2)nc1C, the Potency was inconclusive: 14.1 µM [inhibitor, partial curve, poor fit].
With Cc1c(O)ccc2c(CN(C)CC(=O)Nc3ccc(Cl)cc3)cc(=O)oc12 the Potency was inconclusive: 20 µM [inhibitor, single point].
For CC(C)c1noc(-c2cn(C3CCN(C(=O)c4cccc5[nH]ccc45)C3)nn2)n1 (configuration not stated), the Potency was active: 22.4 µM.
For CCOC(=O)c1ccccc1NC(=O)N1CCC(CN2CCCCC2)CC1, the Potency was inconclusive: 31.6 µM [inhibitor, partial curve, poor fit].
For CCCC(=O)Nc1ccc(-c2nc3ncccc3o2)cc1C, the Potency was inconclusive: 35.5 µM [inhibitor, partial curve, poor fit].
In the case of O=c1c2c(-c3cccs3)csc2nc(CN2CCOCC2)n1CCOc1ccccc1F, the Potency is reported as inconclusive: 15.8 µM [inhibitor, partial curve, poor fit].
Cn1cnc2c1c(=O)n(CCCSCc1ccc(Cl)cc1Cl)c(=O)n2C was tested, and the “activity change, negative = inhibition” value was inactive: 9.53%.
Cc1cc(C)n(-c2ncnc3sc(C)c(-c4ccc(Cl)cc4)c23)n1 was tested, and the Potency was inconclusive: 28.2 µM [inhibitor, single point].
CCCOc1ccc(/C(O)=C2\C(=O)C(=O)NC2c2ccc(C(C)(C)C)cc2)cc1 (configuration not stated) was tested, and the Potency was inconclusive: 14.1 µM [inhibitor, partial curve, poor fit].
With O=C1CC2(CCN(C(=O)CCn3ccccc3=O)C2)C(=O)N1 (configuration not stated) the Potency was inconclusive: 25.1 µM [inhibitor, partial curve, poor fit].
In the case of COc1ccccc1-c1onc(C)c1C(=O)NCCc1ccc(F)cc1, the Potency is reported as inconclusive: 17.8 µM [inhibitor, partial curve].
In the case of CCn1c2ccccc2c2cc(C(=O)N3CCCCCCNC(=O)CC3)ccc21, the Potency is reported as inconclusive: 14.1 µM [inhibitor, partial curve, poor fit].
Cc1cccc(CN2CCCC3(CCN(C(=O)c4ccc(=O)[nH]c4)C3)C2=O)c1 (configuration not stated) was tested, and the Potency was active: 12.6 µM.
With CCCCCn1cnc2c1c(=O)n(C)c(=O)n2C the “activity change, negative = inhibition” value was inactive: 11%.
With COc1ccc(C)cc1S(=O)(=O)N1CCCC(C(=O)NCc2ccccn2)C1 (configuration not stated) the “activity change, negative = inhibition” value was inactive: 18.5%.
With CCOC(=O)c1ccccc1NC(=O)/C(C#N)=C\c1cc(OC)ccc1O the “activity change, negative = inhibition” value was inactive: -7.79%.
